Reference: PubChem BioAssay AID1476 (National Center for Advancing Translational Sciences (NCATS), 2009)
Among all 200,000 compounds or so, about 4,500 (2.2%) were called active. Inconclusive means that the source gave no clear call. Such entries were picked first, then a sample of the others. Calls follow the shape of the dose curve; as a rule, active = well fitted inhibition curve with a large enough effect; inconclusive = small, poorly fitted or top-dose-only effect, or effect the other way; inactive = flat fitted curve, though single readings scatter. A potency beside an inconclusive call is a rough fit, not a confirmed value.

The molecules below were run against Cruzipain (Trypanosoma cruzi) (UniProt P25779) (assay: qHTS Assay for Promiscuous and Specific Inhibitors of Cruzain (without detergent)). Conditions: purified cruzain, Z-FR-AMC fluorescence, no detergent.
Method in brief: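 Purified cruzain at 1.5 nM, pre-incubated 15 min with compound at room temperature in 100 mM sodium acetate pH 5.5, 5 mM DTT, 0.00005% Triton X-100. Reaction started with 2 uM Z-FR-AMC; AMC fluorescence increase over 60 s gives rate.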
Also: nearly all actives have a fitted effect of over 40% in size.
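For max response, negative = inhibition in this document: plate controls were enzyme without inhibitor for no effect and buffer without enzyme for full effect.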
Potency is read from the fitted curve at half-maximal effect; tags tell the direction and shape of the fitted curve.

UniProt P25779, sequence (P25779 whole entry, looked up): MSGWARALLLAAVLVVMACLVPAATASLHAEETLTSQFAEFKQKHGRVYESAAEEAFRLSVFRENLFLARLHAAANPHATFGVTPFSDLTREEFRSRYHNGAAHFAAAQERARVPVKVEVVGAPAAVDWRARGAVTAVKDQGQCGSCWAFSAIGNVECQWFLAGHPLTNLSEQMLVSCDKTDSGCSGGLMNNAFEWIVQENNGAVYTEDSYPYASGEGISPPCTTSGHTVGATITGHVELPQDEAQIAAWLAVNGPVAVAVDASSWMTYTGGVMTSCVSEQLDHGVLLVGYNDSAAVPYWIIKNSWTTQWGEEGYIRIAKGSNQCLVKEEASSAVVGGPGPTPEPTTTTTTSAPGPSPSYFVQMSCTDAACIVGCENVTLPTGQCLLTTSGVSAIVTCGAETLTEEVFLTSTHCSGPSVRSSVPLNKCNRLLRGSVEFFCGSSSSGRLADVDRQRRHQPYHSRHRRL

| SMILES | max response, negative = inhibition | Potency |
| --- | --- | --- |
| CCc1nnc(NS(=O)(=O)c2ccc(NC(=S)Nc3ccc(F)cc3)cc2)s1 | inactive: 11.6% |  |
| CCN(CC)S(=O)(=O)c1ccc(C)c(NC(=O)CSc2ncc(C(F)(F)F)cc2Cl)c1 |  | inconclusive: 39.8 µM [inhibitor, single point] |
| O=C(CSc1nc2c(cnn2-c2ccccc2)c(=O)[nH]1)N1N=C(c2cccs2)CC1c1ccc(F)cc1 (configuration not stated) |  | inconclusive: 31.6 µM [inhibitor, single point] |
| Cc1cc(C)cc(N2C(=O)N(Cc3cc(=O)n4ccccc4n3)c3ccccc3S2(=O)=O)c1 |  | inconclusive: 25.1 µM [activator, single point] |
| O=C(Nc1ncc(Cc2cccc(Cl)c2Cl)s1)c1ccc([N+](=O)[O-])cc1 | inactive: -22.2% |  |
| CCCCOc1ccc(C2C(C(=O)c3ccc(C)o3)=C(O)C(=O)N2CC2CCCO2)cc1 (configuration not stated) |  | inconclusive: 39.8 µM [activator, single point] |
| CCC1(C(=O)c2ccccc2)C(c2ccc([N+](=O)[O-])cc2)C1(C(=O)OC)C(=O)OC (configuration not stated) | inactive: 6.36% |  |
| CC(C)COC(=O)n1c(SCC(=O)N(C)C)nc2ccccc21 |  | inconclusive: 31.6 µM [activator, single point] |
| O=C1N/C(=N\N=C\c2cccnc2)SC1Cc1ccc(SC(F)F)cc1 (configuration not stated) | inactive: -24.2% |  |
| COc1ccc(-c2cc3nc(C)c(CCC(=O)NCCc4ccc(Cl)cc4)c(C)n3n2)c(OC)c1 |  | inconclusive: 7.94 µM [activator, single point] |
| O=C(NC1CCc2ccccc21)C12CN(Cc3ccccc3)CC1C(c1cccc([N+](=O)[O-])c1)=NO2 (configuration not stated) |  | active: 12.6 µM |
| COCCCn1c(N)c(C(=O)OCCOC)c2nc3ccccc3nc21 |  | inconclusive: 25.1 µM [activator, single point] |
| CCOC(=O)N1CCC(NC(=O)c2cnn(-c3ccc(OC)cc3)c2C2CCN(C(=O)OC(C)(C)C)CC2)CC1 |  | inconclusive: 10 µM [activator, partial curve] |
| COc1ccc(C(=O)NNS(=O)(=O)c2ccc(C)cc2)cc1 | inactive: -9.3% |  |
| Cc1ccccc1C(=O)Nc1sc2c(c1C(=O)N1CCC(C)CC1)CCC(C)C2 (configuration not stated) | inactive: 16% |  |
| CCOc1cc2[nH]c(=O)n(CCCCC(=O)N3CCN(c4ccccc4OC)CC3)c(=O)c2cc1OCC | inactive: -3.78% |  |
| CCOc1ccc(-n2c(SCc3nc(-c4ccc(C)cc4)no3)nnc2-c2ccncc2)cc1 |  | inconclusive: 20 µM [activator, single point] |
| COc1cccc(C(=O)CC2(O)C(=O)N(Cc3ccccc3)c3ccccc32)c1 (configuration not stated) | inactive: -6.15% |  |
| COc1cccc(-c2csc(N3CCN(S(=O)(=O)c4ccc(F)cc4)CC3)n2)c1 |  | active: 25.1 µM |
| COc1cc(CNC(=O)c2ccc3nc(Cc4ccccc4)oc3c2)cc(OC)c1OC |  | inconclusive: 39.8 µM [activator, single point] |
| O=C(Cn1nc(C(F)(F)F)c2c1CCCC2)Nc1cccc(Cl)c1 | inactive: -7.44% |  |
| Cc1[nH]n(-c2ccc(S(=O)(=O)O)cc2)c(=O)c1N=Nc1ccccc1 | inactive: -1.39% |  |
| COc1ccc2ccccc2c1C1CC(=O)N2CN(Cc3ccco3)CSC2=C1C#N (configuration not stated) |  | inconclusive: 20 µM [inhibitor, single point] |

| SMILES | max response, negative = inhibition | Potency |
| --- | --- | --- |
| CCOc1ccc(C2C(C(=O)Nc3ccccc3)=C(C)Nc3nc(-c4ccccc4Cl)nn32)cc1OC (configuration not stated) |  | inconclusive: 39.8 µM [activator, single point] |
| NNC(=O)CNc1cccc(Br)c1 | inactive: -4.76% |  |
| CCOC(=O)N1CCC(N2Cc3cccc(C(=O)Nc4ccc(OC)c(OC)c4)c3C2=O)CC1 |  | inconclusive: 39.8 µM [activator, single point] |
| CCCN(C(=O)c1cc(S(=O)(=O)N2CCc3ccccc32)cn1C)c1ccc(OCC)cc1 | inactive: 7.89% |  |
| COc1ccc(N2CCN(C(=O)CN(c3ccc(Br)cc3)S(C)(=O)=O)CC2)cc1 |  | inconclusive: 39.8 µM [activator, single point] |
| COc1ccccc1CCNC(=O)c1cccn1-c1nnc(N2CCCC2)s1 | inactive: 1.35% |  |
| O=C(CC(=O)c1ccccc1)c1ccccc1 |  | inconclusive: 39.8 µM [inhibitor, single point] |
| O=C(Nc1ccccc1)c1cccc(N2CCCC2=O)c1 |  | inconclusive: 25.1 µM [inhibitor, single point] |
| Cc1ccc(CNC(=O)c2ccc(CSc3nc4ccncc4n3Cc3ccc(C)cc3)cc2)cc1 |  | inconclusive: 20 µM [inhibitor, single point] |
| O=C(COc1ccc(S(=O)(=O)N2CCc3ccccc32)cc1Cl)NCc1ccccn1 |  | inconclusive: 31.6 µM [activator, single point] |
| COc1ccc(C(=O)Nc2oc(-c3ccccc3)c(-c3ccccc3)c2C#N)cc1 |  | active: 31.6 µM |
| Nc1c(C(=O)Nc2ccccc2Br)sc2nc(-c3cccs3)ccc12 |  | active: 20 µM |
| O=C(CSc1nc2c([nH]c3ccccc32)c(=O)n1-c1ccccc1)Nc1ccc2c(c1)OCO2 |  | inconclusive: 15.8 µM [inhibitor, partial curve, poor fit] |
| O=C(C1CCN(c2nc3ccc(Br)cc3s2)CC1)N1CCC2(CC1)OCCO2 |  | inconclusive: 25.1 µM [activator, partial curve] |
| COc1ccc(C(=O)NC(=S)Nc2cc3oc4ccccc4c3cc2OC)cc1 |  | active: 7.94 µM |
| CCC(Sc1nc(C)cc(=O)[nH]1)C(=O)Nc1nc2c(s1)CCCC2 (configuration not stated) |  | inconclusive: 39.8 µM [inhibitor, single point] |
| CCC1Sc2ccccc2N(CC(=O)NCc2ccc(C)cc2)C1=O (configuration not stated) | inactive: 3.37% |  |
| COC(=O)c1ccc2c(=O)n(CCCCCC(=O)NCCc3ccccc3)c(=O)[nH]c2c1 | inactive: 0.551% |  |
| COc1cccc(CN2C(=O)CN(C3CCCCC3)C(=O)C2c2ccc(OC(C)C)c(OC)c2)c1 (configuration not stated) |  | inconclusive: 39.8 µM [activator, single point] |
| O=C(COc1cc(Cl)c(Cl)cc1Cl)NC(=O)Nc1ccc2c(c1)OCCO2 |  | active: 20 µM |
| CSc1nc2nccc(-c3ccc(-c4ccccc4)cc3)n2n1 |  | inconclusive: 25.1 µM [activator, single point] |
| CCn1cc(C(=O)NCCCOC(C)C)c(=O)c2cc(S(=O)(=O)N3CCOCC3)ccc21 |  | inconclusive: 39.8 µM [activator, single point] |
| S=C(Nc1ccccc1)Nc1ccccc1C#Cc1ccccc1 | inactive: -18.1% |  |

| SMILES | max response, negative = inhibition | Potency |
| --- | --- | --- |
| CC(=O)NC(Cc1ccc(C(C)C)cc1)C(=O)NC1CCN(c2nc(C)cc(C)n2)CC1 (configuration not stated) |  | inconclusive: 25.1 µM [activator, partial curve] |
| C/C=C/C(=O)OCC(=O)Nc1nc2ccc(C)cc2s1 |  | active: 20 µM |
| O=C(Nc1cccc2ccccc12)/C(=C\c1cccc([N+](=O)[O-])c1)NC(=O)c1cccs1 |  | inconclusive: 39.8 µM [inhibitor, single point] |
| CCCS(=O)(=O)c1c(S(=O)(=O)CCC)c2cnccn2c1C(=O)c1ccc(F)cc1 |  | inconclusive: 31.6 µM [activator, single point] |
| CCOc1ccc2c(c1)C(=NNC(=O)c1ccncc1)c1cc(OCC)ccc1-2 |  | inconclusive: 12.6 µM [activator, partial curve] |
| O=C(CCC1N=C2c3ccccc3N=C(SCC(=O)Nc3cccc(Cl)c3)N2C1=O)NCc1ccco1 (configuration not stated) | inactive: 25.1% |  |
| O=C(CSc1nc2ccccc2[nH]1)Nc1ccccc1F | inactive: -26.7% |  |
| Cc1nc2nc(NC(=O)c3ccc(C(C)(C)C)cc3)[nH]n2c(=O)c1C | inactive: 5.67% |  |
| CCOC(=O)C1CCC(CN(Cc2ccc(Cl)cc2)S(=O)(=O)c2cccc(Cl)c2C)CC1 (configuration not stated) | inactive: 18.6% |  |
| COc1ccc(-c2cc(C(F)F)n3ncc(C(=O)n4ccnc4C)c3n2)cc1 |  | inconclusive: 25.1 µM [activator, partial curve] |
| O=C(NC1CN2CCC1CC2)c1ccc(-c2ccc([N+](=O)[O-])cc2)o1 (configuration not stated) |  | inconclusive: 39.8 µM [inhibitor, single point] |
| CCOC(=O)C1CCN(C(=O)c2cc3sc(C)cc3n2C)CC1 |  | inconclusive: 39.8 µM [activator, single point] |
| CCCCN(CC)C(=O)CSc1nc2n[nH]c(C)c2c(=N)n1-c1ccc(CC)cc1 |  | inconclusive: 31.6 µM [activator, single point] |
| O=C(COC(=O)c1ccc2[nH]c3c(c2c1)CCCC3)Nc1ccc(Cl)cc1Cl |  | inconclusive: 20 µM [inhibitor, partial curve, poor fit] |
| Nc1nc(-c2ccc(Br)cc2)cc(C(F)(F)F)n1 |  | inconclusive: 39.8 µM [inhibitor, single point] |
| O=C(CN1CCCC(O)C1)N1c2ccccc2Sc2ccc(C(F)(F)F)cc21 (configuration not stated) | inactive: -2.05% |  |
| O=C(Nc1ccc2c(c1)oc1ccccc12)c1ccc2c(c1)OCO2 |  | inconclusive: 31.6 µM [inhibitor, single point] |
| CCCCOc1ccccc1C1CC(=O)Nc2ccc3ccccc3c21 (configuration not stated) | inactive: -27.4% |  |
| COc1ccc(N(CC(=O)Nc2ccc3c(c2)OCO3)S(=O)(=O)c2ccc(F)cc2)cc1 |  | active: 20 µM |
| COc1ccccc1CCNC(=O)Cc1c(C)c2cc(Cl)c(O)cc2oc1=O |  | inconclusive: 3.98 µM [activator, partial curve] |
| N#CC1=C2SCN(Cc3ccccc3)CN2C(=O)CC1c1ccc2c(c1)OCO2 (configuration not stated) | inactive: -24.3% |  |
